Experimental data published in the supplement of paper PMC12632987.
Whole data set: some 4,500 sequences, median “median log2 fold change of GCK-ALFA target abundance (FLAG IP / Myc IP barcode read proportion)” near 0.078, cut for the lowest 2% near -0.6. Some of the results follow.

B1: GBRAP_160_4520 (protein)
chain: SAALEEAEKELEEAAKEAIEMVKGETAEQRAVIVDGEFGSFAMELASNPEYSDEMVDVVLKARDEIVDTILANPDLTDEELEELIEKAVEEAKKELRKLA
B2: GBRAP_160_4474 (protein)
chain: MEKVKKAVEELRKDVEETLEENEDLPPKDLLLAVEVTIGSNLMEWVEEGTLTDEQEDVVMEAMDEVRRLREESEDMSVEEVKERAREIIERMAERILALA
B3: GBRAP_43_5737 (protein)
chain: MEEVLDAAAETALLALESEELTDETKIKILRDFFEVAADESKENKELYKAAAEALKKHQDLEAVKKAAELAKEIAKKDPKYKEVFEKAAEYLEKLAKKLE
B4: GBRAP_150_3934 (protein)
chain: DLEELLLLAESVADLLDLALNEGIDRLKALKRAQELLKDLIKEADEELKEIAKKAQELIKKAIKLEEEGGEEKEIKKLLKKAQELAKELAKELEKKIEEE
B5: GBRAP_125_3097 (protein)
chain: HMEELLEALRRIALALGFSEEDAEELARLAREGSLRQTLVALFLAEGEEEVADLVAQLTEEQAAELVRRLAEYLEAHPDLTKEEVVEKAKEIAEELLAKA
B6: GBRAP_166_4895 (protein)
chain: STADAIAQIDALADDVIARIAELTPEELLAAFVEMAEIVEEAGATPELIAAAAAAFARVARAAVAAGRDWAEVETLVLGAVGYNEKLLDAVEAALAAARA
B7: GBRAP_160_4681 (protein)
chain: SAKVEEAEEELEEEFEEVLSLYDEMTPEQLAAAVRVAFGELKLYLEELGLLTDEVEEVLDEEEERIVDYILANPNITREEFAELLEEAKEEIVEKLKEAA
B8: GBRAP_35_5556 (protein)
chain: SSDEEIVDMMTNTAEDALLTVDEIPVDTAFEIVEKIAKAALEILKKEKENVEGMKRLADATLEALDALIKRLKEEGAPEEKIKRLEELRKEIKEELEKIK

target: GABARAP, O95166; experiment: median log2 fold change of GCK-ALFA target abundance (FLAG IP / Myc IP barcode read proportion) (log2 ratio); each designed protein is fused to an ALFA-tag nanobody in HEK293 cells to bring the named protein to FLAG-tagged glucokinase (GCK); Myc marks an untargeted standard; higher = target protein stabilised (more abundant); settings: target protein: 3xFLAG-MCP-GCK-ALFA reporter; HEK293 landing pad (RPLP)
Sequence (O95166 whole entry, the tested form may be a part): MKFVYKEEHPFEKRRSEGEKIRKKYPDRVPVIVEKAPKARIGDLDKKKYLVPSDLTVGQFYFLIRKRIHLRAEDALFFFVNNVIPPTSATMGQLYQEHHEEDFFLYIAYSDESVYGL
Method in brief: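 Binders fused to an ALFA nanobody were recombined as a library into HEK293 landing-pad cells, which were induced with 2 μg mL^−1 doxycycline and then transfected to express a FLAG-tagged target and a Myc-tagged standard. After 48 h, circular RNA barcodes recovered by anti-FLAG and anti-Myc immunoprecipitation of lysates were reverse transcribed, amplified and sequenced. Each binder's target abundance is the median log2 ratio of FLAG to Myc barcode read proportions, from barcodes present at ≥10^−7 in both replicates, binders carrying ≥3 barcodes per replicate, a 10^−6 pseudocount and pooled replicates.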

**Q.** How did the “median log2 fold change” value turn out when B1 was run?
**A.** Its value is 0.108.

**Q.** For B2, which “median log2 fold change” value is on record?
**A.** Its value is -0.295.

**Q.** For B3, which “median log2 fold change” value is on record?
**A.** The value was 0.26.

**Q.** Which “median log2 fold change” value does the source give for B4 here?
**A.** The value was 0.0862.

**Q.** B5 was tested. Which “median log2 fold change” value did it give?
**A.** Its value is 0.128.

**Q.** B6 was tested. Which “median log2 fold change” value did it give?
**A.** Its value is 0.122.

**Q.** How did the “median log2 fold change” value turn out when B7 was run?
**A.** Its value is -0.56.

**Q.** With B8 as the binder, how does the “median log2 fold change” value read?
**A.** Its value is 0.109.
